The results in this text go back to the supplement of paper PMC4604168 (melanoma cell lines).

This is one part of the list. Single values are uncertain, as repeats are few or missing.
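Note: cells treated in 1,536-well plates, then fixed and DAPI-stained, with nuclei counted from automated high-throughput microscope images.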

In this experiment the test system is WM451Lu. In words: cell count relative to DMSO control; melanoma cells; higher = more viable cells. The settings on record: library dose: standard library concentration; 72 h.
`Cc1cc(Nc2cc(N3CCN(C)CC3)nc(Sc3ccc(NC(=O)C4CC4)cc3)n2)n[nH]1` [Tozasertib] + Cc1cc([N+](=O)[O-])ccc1NS(=O)(=O)c1cc(Cl)ccc1Cl [FH535] (first compound 0.03 µM, partner dose 5 µM) returned a cell count of 87.8%.
Under `N#CC[C@H](C1CCCC1)n1cc(-c2ncnc3[nH]ccc23)cn1` [ruxolitinib] + CCN(CC)CCCCNc1ncc2cc(-c3cc(OC)cc(OC)c3)c(NC(=O)NC(C)(C)C)nc2n1 [PD173074] (first compound 5 µM, partner dose 0.5 µM) stands 106%; under `CC[C@]1(O)C[C@H]2CN(CCc3c([nH]c4ccccc34)[C@@](C(=O)OC)(c3cc4c(cc3OC)N(C=O)[C@H]3[C@@](O)(C(=O)OC)[C@H](OC(C)=O)[C@]5(CC)C=CCN6CC[C@]43[C@@H]65)C2)C1` [vincristine] + NCC(=O)Nc1ccc(-n2nc(C(F)(F)F)cc2-c2ccc3c(ccc4ccccc43)c2)cc1 [OSU03012] (first compound 0.0005 µM, partner dose 5 µM), 41.9%; under `N#CC[C@H](C1CCCC1)n1cc(-c2ncnc3[nH]ccc23)cn1` [ruxolitinib] + Cc1nc(Nc2ncc(C(=O)Nc3c(C)cccc3Cl)s2)cc(N2CCN(CCO)CC2)n1 [dasatanib] (first compound 5 µM, partner dose 0.02 µM), 60.8%.
In the case of `CC[C@]1(O)C[C@H]2CN(CCc3c([nH]c4ccccc34)[C@@](C(=O)OC)(c3cc4c(cc3OC)N(C=O)[C@H]3[C@@](O)(C(=O)OC)[C@H](OC(C)=O)[C@]5(CC)C=CCN6CC[C@]43[C@@H]65)C2)C1` [vincristine] + O=C(O)c1ccc(-c2c[nH]c3ncc(-c4ccccc4)cc23)cc1C1CCCC1 [GSK650394] (first compound 0.0005 µM, partner dose 0.8 µM), the cell count was 47.4%.
